Here are results for 9 molecules from the supplement of paper PMC4604168 (melanoma cell lines).

The list shows a part of the results. Many values rest on one well or one pass, so single values are uncertain.
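Further: cell number obtained by counting DAPI-stained nuclei in high-throughput microscope images with image analysis software, screen run in 1,536-well plates.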

The test system of the assay is WM3619. The assay can be described thus: cell count relative to DMSO control; melanoma cells; higher = more viable cells. Conditions: library dose: low library concentration; 72 h.
For `Cc1nc(Nc2ncc(C(=O)Nc3c(C)cccc3Cl)s2)cc(N2CCN(CCO)CC2)n1` [dasatanib] + Cc1cc(SCc2sc(-c3ccc(C(F)(F)F)c(F)c3)nc2C)ccc1OCC(=O)O [GW0742] (first compound 0.004 µM, partner dose 2 µM), the cell count stood at 88.4%.

Molecule `COCC[n+]1c2c(n(Cc3cnccn3)c1C)C(=O)c1ccccc1C2=O` + Cc1cc(SCc2sc(-c3ccc(C(F)(F)F)c(F)c3)nc2C)ccc1OCC(=O)O [GW0742] (first compound 0.0004 µM, partner dose 2 µM) showed a cell count of 116%.

Molecule `Cc1cc(Nc2cc(N3CCN(C)CC3)nc(Sc3ccc(NC(=O)C4CC4)cc3)n2)n[nH]1` [Tozasertib] + C/C(O)=C(\C#N)C(=O)Nc1cc(Br)ccc1Br [LFM-A13] (first compound 0.006 µM, partner dose 2 µM) registered a cell count of 82.8%.

With `Cc1cc(Nc2cc(N3CCN(C)CC3)nc(Sc3ccc(NC(=O)C4CC4)cc3)n2)n[nH]1` [Tozasertib] + C[As](C)SC[C@H](NC(=O)CC[C@H](N)C(=O)O)C(=O)NCC(=O)O [Darinaparsin] (first compound 0.006 µM, partner dose 0.4 µM), the cell count came out at 87.8%.

As for `COc1ccc(COc2ccc(Cc3cnc(N)nc3N)cc2OC)cc1` + C/C(O)=C(\C#N)C(=O)Nc1cc(Br)ccc1Br [LFM-A13] (first compound 1 µM, partner dose 2 µM), the cell count was determined as 112%.

The molecule `O=C(O)c1ccc2c(c1)nc(Nc1cccc(Cl)c1)c1ccncc12` + O=C(Oc1ccc([N+](=O)[O-])cc1)N1CCC(C(O)(c2ccc3c(c2)OCO3)c2ccc3c(c2)OCO3)CC1 [JZL184] (first compound 0.4 µM, partner dose 1 µM) displayed a cell count of 105%.

`COc1ccc(COc2ccc(Cc3cnc(N)nc3N)cc2OC)cc1` + Cc1cc(SCc2sc(-c3ccc(C(F)(F)F)c(F)c3)nc2C)ccc1OCC(=O)O [GW0742] (first compound 1 µM, partner dose 2 µM) had a cell count of 104%.

On to `Clc1ccc(Nc2nnc(Cc3ccncc3)c3ccccc23)cc1` [vatalanib] + C[As](C)SC[C@H](NC(=O)CC[C@H](N)C(=O)O)C(=O)NCC(=O)O [Darinaparsin] (first compound 2 µM, partner dose 0.4 µM), for which the cell count is 69.6%.

As to `CC(C)C[C@H](NC(=O)[C@H](Cc1ccccc1)NC(=O)c1cnccn1)B(O)O` [Bortezomib] + N.N.[Cl][Pt][Cl] [cisplatin] (first compound 0.001 µM, partner dose 1.6 µM), the cell count amounted to 26.2%.
